Reference: the supplement of paper PMC12217912
This is one part of the list. The full chains were built here from the parent and the listed change. Values near 0.05 are background.

B1: TEV protease; numbered along this chain (parent)
chain: MGESLFKGPRDYNPISSSICHLTNESDGHTTSLYGIGFGPFIITNKHLFRRNNGTLVVQSLHGVFKVKDTTTLQQHLVDGRDMIIIRMPKDFPPFPQKLKFREPQREERICLVTTNFQTKSMSSMVSDTSCTFPSGDGIFWKHWIQTKDGQCGSPLVSTRDGFIVGIHSASNFTNTNNYFTSVPKNFMELLTNQEAQQWVSGWRLNADSVLWGGHKVFMVKPEEPFQPVKEATQL

Variants of: B1
Experiment: raw area under fraction-flipped curve 0-4 h after induction (AUC4h, not background-subtracted), DNA-recorder readout of cleavage of the substrate (dimensionless); higher = more cleavage of the substrate by the protease variant
Details: temperature: 34 °C; time window: 0-4 h after rhamnose induction
Protocol: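 In vivo DNA recorder in E. coli TOP10(DE3) ΔrhaA at 34 °C. Each TEVp single-site mutant (parent TEVp 0) is paired with a single-site variant of the 7-mer TEVs (canonical ENLYFQ|S). The substrate sits between flexible linkers in a Bxb1-sfGFP-TEVs-SsrA fusion, so cleavage stabilises Bxb1 and speeds flipping of a recombination array, read by NGS. The value is the raw area under the fraction-flipped curve over 0-4 h after rhamnose induction (AUC4h), with ≥20 reads per time point. It is not background-subtracted; inactive controls average about 0.047.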
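Further: Bxb1 expression induced with 0.2% (w/v) L-rhamnose at OD600 near 0.5, cultures sampled hourly, flipped fraction per protease–substrate barcode pair counted by paired-end Illumina sequencing.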

| Variant | area with substrate ENLAFQS | area with substrate ENLDFQS | area with substrate ENLEFQS | area with substrate ENLFFQS | area with substrate ENLHFQS | area with substrate ENLKFQS | area with substrate ENLLFQS | area with substrate ENLMFQS | area with substrate ENLNFQS | area with substrate ENLQFQS | area with substrate ENLRFQS | area with substrate ENLSFQS | area with substrate ENLVFQS | area with substrate ENLCFQS | area with substrate ENLGFQS | area with substrate ENLWFQS | area with substrate ENLIFQS | area with substrate ENLPFQS | area with substrate ENLTFQS |
| --- | --- | --- | --- | --- | --- | --- | --- | --- | --- | --- | --- | --- | --- | --- | --- | --- | --- | --- | --- |
| MGESLFKGPRDYNPISSSICHLTNESDGHTTSLYGIGFGPFIITNKHLFRRNNGTLVVQSLHGVFKVKDTTTLQQHLVDGRDMIIIRMPKDFPPFPQKLKFREPQREERICLVTTNFQTKSMSSMVSDTSCTFPSGDGIFWKHWIQTKDGQCGSPLVSTRDGFIVGIHSASNGTNTNNYFTSVPKNFMELLTNQEAQQWVSGWRLNADSVLWGGHKVFMVKPEEPFQPVKEATQL [F173G] | 0.072 | 0.0602 | 0.0519 | 0.0643 | 0.0609 | 0.0651 | 0.0693 | 0.0521 | 0.0619 | 0.0407 | 0.061 | 0.0567 | 0.0699 |  |  |  |  |  |  |
| MGESLFKGPRDYNPISSSICHLTNESDGHTTSLYGIGFGPFIITNKHLFRRNNGTLVVQSLHGVFKVKDTTTLQQHLVDGRDMIIIRMPKDFPPFPQKLKFREPQREERICLVTTNFQTKSMSSMVSDTSCTFPSGDGIFWKHWIQTKDGQCGSPLVSTRDGFIVGIHSASNWTNTNNYFTSVPKNFMELLTNQEAQQWVSGWRLNADSVLWGGHKVFMVKPEEPFQPVKEATQL [F173W] | 0.0533 | 0.0641 | 0.062 |  | 0.0683 | 0.0631 | 0.0668 |  | 0.0635 |  | 0.0607 | 0.0654 |  |  |  |  |  |  |  |
| MGESLFKGPRDYNPISSSICHLTNESDGHTTSLYGIGFGPFIITNKHLFRRNNGTLVVQSLHGVFKVKDTTTLQQHLVDGRDMIIIRMPKDFPPFPQKLKFREPQREERICLVTTNFQTKSMSSMVSDTSCTFPSGDGIFWKHWIQTKDGQCGSPLVSTRDGFIVGIHSASNFTNTNNYFRSVPKNFMELLTNQEAQQWVSGWRLNADSVLWGGHKVFMVKPEEPFQPVKEATQL [T181R] | 0.0533 | 0.0538 | 0.0673 | 0.0554 | 0.0398 | 0.0527 | 0.0442 | 0.0483 | 0.0658 |  | 0.0485 | 0.0543 |  | 0.0239 | 0.0715 | 0.0464 |  |  |  |
| MGESLFKGPRDYNPISSSICHLTNESDGHTTSLYGIGFGPFIITNKHLFRRNNGTLVVQSLHGVFKVKDTTTLQQHLVDGRDMIIIRMPKDFPPFPQKLKFREPQREERICLVTTNFQTKSMSSMVSDTSCTFPSGDGIFWKHWIQTKDGQCGSPLVSTRDGFIVGIHSMSNFTNTNNYFTSVPKNFMELLTNQEAQQWVSGWRLNADSVLWGGHKVFMVKPEEPFQPVKEATQL [A170M] | 0.0242 |  |  | 0.061 |  | 0.0385 |  |  |  |  |  |  |  |  |  |  | 0.0526 |  |  |
| MGESLFKGPRDYNPISSSICHLTNESDGHTTSLYGIGFGPFIITNKHLFRRNNGTLVVQSLHGVFKVKDTTTLQQHLVDGRDMIIIRMPKDFPPFPQKLKFREPQREERICLVTTNFQTKSMSSMVSDTSCTFPSGDGIFWKHWIQTKDGQCGSPLVSTRDGFIVGIHSASNFTNTNNYFTLVPKNFMELLTNQEAQQWVSGWRLNADSVLWGGHKVFMVKPEEPFQPVKEATQL [S182L] | 0.0653 |  |  | 0.0618 | 0.0616 | 0.0508 | 0.0492 |  | 0.0566 |  |  | 0.0518 |  | 0.0534 |  | 0.0521 |  | 0.0535 | 0.05 |
| MGESLFKGPRDYNPISSSICHLTNESDGHTTSLYGIGFGPFIITNKHLFRRNNGTLVVQSLHGVFKVKDTTTLQQHLVDGRDMIIIRMPKDFPPFPQKLKFREPQREERICLVTTNFQTKSMSSMVSDTSCTFPSGDGIFWKHWIQTKDGQCGSPLVSTRDGFIVGIHSASNFTNTNNYFTQVPKNFMELLTNQEAQQWVSGWRLNADSVLWGGHKVFMVKPEEPFQPVKEATQL [S182Q] | 0.0609 | 0.064 | 0.0579 | 0.0467 | 0.0523 | 0.0708 | 0.062 |  | 0.0612 |  | 0.0681 | 0.0581 | 0.0721 | 0.0503 |  | 0.0469 | 0.0511 | 0.0378 |  |
| MGESLFKGPRDYNPISSSICHLTNESDGHTTSLYGIGFGPFIITNKHLFRRNNGTLVVQSLHGVFKVKDTTTLQQHLVDGRDMIIIRMPKDFPPFPQKLKFREPQREERICLVTTNFQTKSMSSMVSDTSCTFPSGDGIFWKHWIQTKDGQCGSPLVSTRDGFIVGIHSASNFTNTNNYFTGVPKNFMELLTNQEAQQWVSGWRLNADSVLWGGHKVFMVKPEEPFQPVKEATQL [S182G] | 0.0507 | 0.0673 |  | 0.0815 |  |  |  |  | 0.038 |  |  | 0.0565 |  | 0.0752 |  |  | 0.0823 |  |  |
| MGESLFKGPRDYNPISSSICHLTNESDGHTTSLYGIGFGPFIITNKHLFRRNNGTLVVQSLHGVFKVKDTTTLQQHLVDGRDMIIIRMPKDFPPFPQKLKFREPQREERICLVTTNFQTKSMSSMVSDTSCTFPSGDGIFWKHWIQTKDGQCGSPLVSTRDGFIVGIHSASNFTNTNNYRTSVPKNFMELLTNQEAQQWVSGWRLNADSVLWGGHKVFMVKPEEPFQPVKEATQL [F180R] | 0.0471 | 0.046 |  | 0.0582 | 0.0879 | 0.0466 |  |  | 0.0647 | 0.0487 |  | 0.0357 |  | 0.0564 |  | 0.0771 | 0.0406 |  |  |
| MGESLFKGPRDYNPISSSICHLTNESDGHTTSLYGIGFGPFIITNKHLFRRNNGTLVVQSLHGVFKVKDTTTLQQHLVDGRDMIIIRMPKDFPPFPQKLKFREPQREERICLVTTNFQTKSMSSMVSDTSCTFPSGDGIFWKHWIQTKDGQCGSPLVSTRDGFIVGIHQASNFTNTNNYFTSVPKNFMELLTNQEAQQWVSGWRLNADSVLWGGHKVFMVKPEEPFQPVKEATQL [S169Q] | 0.0607 | 0.0625 | 0.0633 | 0.0505 | 0.0568 | 0.0634 | 0.0625 | 0.0425 | 0.0646 | 0.0669 | 0.0608 | 0.0621 | 0.0704 | 0.0436 | 0.0568 | 0.034 | 0.0565 | 0.0528 | 0.0488 |
